The record followed here is PubChem BioAssay AID485344 (National Center for Advancing Translational Sciences (NCATS), 2010).

What is called inhibition is the relative decrease from the control value, in per cent.

About 6,900 (2%) of roughly 340,000 compounds were called active. No stated cut-off is given here; in the data, active means inhibition above about 30%; inactive means below that, where a call was filed. Only a part is listed here, and it is no random draw. The source gives no active or inactive call for entries shown without one.

The target in the assay is D(2) dopamine receptor (Homo sapiens) (UniProt P14416). The assay can be described thus: HTS Assay for Allosteric Antagonists of the Human D2 Dopamine Receptor: Primary Screen for Antagonists. Further: 0% is about no effect. To be noted: HEK293 TREx D2 cells, calcium flux, dopamine EC80; at 10 µM; stronger effect = higher value. The method, boiled down: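 Calcium mobilization kinetics were recorded at 1 s intervals in tetracycline-induced HEK293 T-REx D2 cells, first for 180 s after compound addition and then 180 s after EC80 dopamine.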
Chain of UniProt P14416 (P14416 whole entry, looked up): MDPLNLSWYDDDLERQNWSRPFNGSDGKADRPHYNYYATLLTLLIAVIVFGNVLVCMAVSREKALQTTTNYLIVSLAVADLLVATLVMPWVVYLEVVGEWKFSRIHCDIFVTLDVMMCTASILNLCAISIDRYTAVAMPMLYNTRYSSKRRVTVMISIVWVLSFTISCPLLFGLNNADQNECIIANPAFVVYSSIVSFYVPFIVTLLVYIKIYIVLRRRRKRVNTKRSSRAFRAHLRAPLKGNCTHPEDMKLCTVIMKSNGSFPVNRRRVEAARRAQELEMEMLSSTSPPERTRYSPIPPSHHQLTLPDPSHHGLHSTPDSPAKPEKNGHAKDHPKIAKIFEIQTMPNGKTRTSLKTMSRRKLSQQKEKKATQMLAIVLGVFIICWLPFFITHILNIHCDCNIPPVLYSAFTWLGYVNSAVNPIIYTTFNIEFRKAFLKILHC
A general note: A change in cytosolic calcium serves as a functional read-out for many receptors and channels.
Regarding `C=CCn1c(SCC(=O)Nc2ccc(OC)cc2)nc2c([nH]c3ccccc32)c1=O`, the inhibition was active: 33.1%.
In the case of `CCOc1ccc(OC(=O)c2cn(-c3cccc(OC)c3)c(=O)c3ccccc23)cc1` it was 5.25%; in that of `CCOC(=O)C1CCN(C(=O)CN2c3ccc(C(C)C)cc3-c3ccccc3S2(=O)=O)CC1`, 2.74%; in that of `CC1CCN(C(=O)c2cc3c(=O)n(C)c4ccccc4c3s2)CC1`, 6.85%.
For `COc1cc(C2NC(=O)N(C)C3=C2C(=O)N(c2cccc(Cl)c2)C3)ccc1O` (stereo unspecified), the inhibition is 6.84%.
Under `O=C(CCN1CCN(c2ccccc2)CC1)N/N=C/c1ccccc1OC(F)F` stands active: 87.7%; under `Cc1ccc(NC(=O)c2ccc3oc(=O)c(S(=O)(=O)c4ccccc4)cc3c2)cc1C`, 4.12%.
In the case of `Cc1ccc(NC(=O)Cn2nnc(-c3nc(-c4ccncc4)no3)c2N)c(C)c1` it was -0.355%; in that of `COc1ccccc1NC(=O)C1=C(C)Nc2nc(SCc3ccc(Cl)cc3)nn2C1c1ccccc1Cl` (stereo unspecified), -2.89%; in that of `CC(NC(=O)C1CCN(C(=O)c2ccc(-n3ccc4ccccc43)s2)CC1)c1ccccc1` (stereo unspecified), -2.51%.
In the case of `Cc1ccc(Nc2c(-c3ccsc3)nc3cccc(C)n23)cc1` it was 0.53%; in that of `CCOC(=O)CNC(=O)c1ccc(-c2nn(C)c(=O)c3ccccc23)cc1`, -8.92%.
As for `COc1ccc(Cl)cc1NC(=O)CSC1=Nc2ccccc2C2=NC(CC(=O)NC3CCCCC3)C(=O)N12` (stereo unspecified), the inhibition came to 1.14%.
Under `CC(O)CNCCCOc1cccc(C(F)(F)F)c1` (stereo unspecified) stands active: 33.8%; under `CCc1ccc(NCc2cc3ccc(OC)cc3n(CC(=O)Nc3ccc(C(C)C)cc3)c2=O)cc1`, -5.57%.
Under `c1ccc(CCNCCCOc2cccc3ccccc23)cc1` stands active: 35.2%.
Consider `COc1cccc(-n2c(SCC(=O)Nc3cccc(Cl)c3)nc3c(oc4ccccc43)c2=O)c1`, for which the inhibition is 8.19%.
In the case of `O=C(CSc1cn(CCNC(=O)c2ccccc2F)c2ccccc12)Nc1ccccc1F` it was 6.08%; in that of `Cc1c(NC(=O)CC(C)C)cccc1-c1nc2cccnc2s1`, 4.44%; in that of `COc1ccc(/C=C\C(=O)NC2CC(=O)N(c3ccc(F)cc3)C2)cc1OC` (stereo unspecified), 10.6%.
`O=C(CSc1nc2c(sc3ccccc32)c(=O)n1CCCC(=O)NC1CCCC1)Nc1ccc(F)cc1`: the inhibition was -2.94%.
Under `CS(=O)(=O)c1oc(-c2ccc(F)cc2)nc1S(=O)(=O)c1ccc(Cl)cc1` stands 4.44%; under `COc1ccc(-n2c(=O)c3c(C)c(C)sc3n(CC(=O)NCc3ccc(C)cc3)c2=O)c(OC)c1`, 17.4%.
Take `O=C(NCc1ccc(F)cc1)C1CCCN(c2ncnc3onc(-c4ccc(F)cc4)c23)C1` (stereo unspecified): the inhibition was -4.11%.
With `CCOc1ccccc1CNC(=O)c1ccc(-c2nc(CSc3ccc(C)cc3)c(C)o2)cc1`, the inhibition was found to be 5.5%.
In the case of `Cn1c(=O)c(=O)n(C)c2cc(S(=O)(=O)CCC(=O)Nc3cccc(C(F)(F)F)c3)ccc21` it was 7.73%.
